The source of these data is PMC4242493.

This is one part of the list. The list includes weakly bound sequences.

The target of this experiment is MaxL homodimer (UniProt P61244). Briefly: universal protein-binding microarray (PBM). The note with it: PBS-based mixture, 10 nM His-tagged protein dimer, 2% milk, 200 ng/uL BSA, 50 ng/uL salmon testes DNA, 0.02% TX-100; detection with Alexa 488 anti-His …; high values mean tight binding; most listed sequences are background and not binding sites; double strand, one strand shown.
Chain of UniProt P61244 (P61244 whole entry): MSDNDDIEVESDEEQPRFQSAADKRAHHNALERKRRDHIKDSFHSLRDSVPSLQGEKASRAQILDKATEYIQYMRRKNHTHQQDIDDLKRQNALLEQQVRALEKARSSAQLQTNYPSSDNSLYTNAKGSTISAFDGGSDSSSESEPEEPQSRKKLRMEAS
Regarding GCTGACCC, the binding signal (normalized occupancy) stood at 0.0707.
Consider AGCAATCA, for which the binding signal (normalized occupancy) was 0.0741.
With GAACTCGA, the binding signal (normalized occupancy) turned out to be 0.0761.
To AGTTTTCA belongs 0.0725; to ATCCCTTC, 0.0745.
Regarding CGATGGCC, the binding signal (normalized occupancy) is 0.0707.
Take GCCACACA: the binding signal (normalized occupancy) was determined as 0.0771.
Take CAGCTCAC: the binding signal (normalized occupancy) came out at 0.0734.
For the sequence AAGCACTT, the binding signal (normalized occupancy) amounted to 0.0733.
As for GCTCATAA, the binding signal (normalized occupancy) came out at 0.0731.
To CTTGTCGA belongs 0.0718; to AATACCAA, 0.0753.
As for TAAACTAA, the binding signal (normalized occupancy) was found to be 0.0761.
As for ATCGTATG, the binding signal (normalized occupancy) is 0.0786.
GTAATACA: the binding signal (normalized occupancy) is 0.0763.
To CAGCAACA belongs 0.0758; to AACGACCC, 0.074; to ACTGAAGG, 0.0686.
To AGCGGACA belongs 0.0676; to ACCACTCG, 0.0782.
GACTAGTA: the binding signal (normalized occupancy) came to 0.079.
Take TCCTCAGA: the binding signal (normalized occupancy) is 0.0724.
Regarding GGCGGTCA, the binding signal (normalized occupancy) is 0.0776.
To GTATCTCA belongs 0.0813; to AGGCTGTA, 0.076; to CACATATG, 0.095.
As for ACCGTTGA, the binding signal (normalized occupancy) was 0.0717.
For the sequence CGTGGGGA, the binding signal (normalized occupancy) came out at 0.0853.
On to GGATGGTA, for which the binding signal (normalized occupancy) came out at 0.0803.
For ACATGGTG, the binding signal (normalized occupancy) stood at 0.0914.
Turning to GAAGAAGA, the binding signal (normalized occupancy) turned out to be 0.0714.
With AAGAGATC, the binding signal (normalized occupancy) turned out to be 0.0785.
As to CCACCATA, the binding signal (normalized occupancy) is 0.084.
For CACGCTGG, the binding signal (normalized occupancy) came out at 0.113.
On to ACCGGGGA, for which the binding signal (normalized occupancy) worked out at 0.0723.
As to CCGACTAA, the binding signal (normalized occupancy) is 0.0758.
With GTCCCTCA, the binding signal (normalized occupancy) turned out to be 0.0754.
AATGTTAA: the binding signal (normalized occupancy) amounted to 0.0817.
The result for AGGTTACG reads 0.072; that for ACCAAGTA, 0.0719; that for CTCGGCTA, 0.0658.
For the sequence ATGAAAGA, the binding signal (normalized occupancy) was 0.071.
AGAGAACC: the binding signal (normalized occupancy) came out at 0.0865.
The result for ACCAGTGA reads 0.0765.
For CCCCCCAA, the binding signal (normalized occupancy) was determined as 0.0777.
To AGTTGATG belongs 0.0746; to CCGTGATA, 0.0782; to CTAAATTA, 0.072.
With AGAGGCCG, the binding signal (normalized occupancy) was determined as 0.0676.
With GTCACCAC, the binding signal (normalized occupancy) is 0.0775.
Take ACGCCTGC: the binding signal (normalized occupancy) came out at 0.0743.
The result for GAGCGACA reads 0.0823; that for AAATATCC, 0.0699.
With ACACCAGG, the binding signal (normalized occupancy) amounted to 0.0735.
The result for CGCGAACC reads 0.0677; that for CCTGATTA, 0.075; that for GCGATTGA, 0.0748.
To GCTTTGCA belongs 0.072.
To CACGTTAG belongs 0.105.
CCTGGTAA: the binding signal (normalized occupancy) was 0.073.
The result for ATTCGAAA reads 0.0738; that for CCCCTAGA, 0.0806; that for ATCGCTAC, 0.0736.
Consider CCCTTGCA, for which the binding signal (normalized occupancy) turned out to be 0.0735.
Turning to CCTTTAAA, the binding signal (normalized occupancy) is 0.0745.
AATTCGCG: the binding signal (normalized occupancy) turned out to be 0.0755.
Consider CCGTATAC, for which the binding signal (normalized occupancy) stood at 0.0779.
As to CCTTCGAG, the binding signal (normalized occupancy) turned out to be 0.0696.
Take ACGGCAAA: the binding signal (normalized occupancy) was determined as 0.0694.
As for ACGAGACT, the binding signal (normalized occupancy) is 0.077.
Regarding AAGTATTA, the binding signal (normalized occupancy) was 0.0765.
As to GAACTGTA, the binding signal (normalized occupancy) was found to be 0.0745.
ATGGTGTC: the binding signal (normalized occupancy) was 0.081.
As for AGCTTACT, the binding signal (normalized occupancy) came to 0.0712.
With CTATGTAC, the binding signal (normalized occupancy) was 0.0847.
Consider AAGCCGCC, for which the binding signal (normalized occupancy) was 0.0707.
Consider CGCAGCAC, for which the binding signal (normalized occupancy) turned out to be 0.0736.
Consider CTGGTGGC, for which the binding signal (normalized occupancy) was 0.0753.
Regarding CCAGTACA, the binding signal (normalized occupancy) turned out to be 0.0847.
Regarding GTAGCGGA, the binding signal (normalized occupancy) was 0.0685.
As for AGCCAGCA, the binding signal (normalized occupancy) was 0.0736.
Regarding ATGTATTA, the binding signal (normalized occupancy) was determined as 0.0821.
The result for TACCGATA reads 0.0719.
In the case of GGGTGTAC, the binding signal (normalized occupancy) stood at 0.0782.
Turning to ATCAAAAG, the binding signal (normalized occupancy) was found to be 0.075.
Regarding CGCCTAGA, the binding signal (normalized occupancy) was determined as 0.0698.
ACTTCACG: the binding signal (normalized occupancy) was determined as 0.0799.
Take CCTCGTGC: the binding signal (normalized occupancy) was found to be 0.133.
The result for AATTCCAC reads 0.0752; that for ACAAGTGC, 0.0781; that for AGTATCAC, 0.0846.
The result for GAACTGCA reads 0.072; that for CCATTTAA, 0.0764.
ATCTCTAG: the binding signal (normalized occupancy) worked out at 0.0794.
The result for AACGGTAC reads 0.0737.
As to AATGGAAC, the binding signal (normalized occupancy) was found to be 0.074.
CATCAAAA: the binding signal (normalized occupancy) came out at 0.0747.
On to CCCATACC, for which the binding signal (normalized occupancy) stood at 0.0872.
Consider CACCACTC, for which the binding signal (normalized occupancy) was 0.0771.
For the sequence GGGGGCAC, the binding signal (normalized occupancy) stood at 0.0775.
ATGGAGTA: the binding signal (normalized occupancy) turned out to be 0.0779.
The result for CCAACGCC reads 0.0721; that for CAGCTACG, 0.0718.
AGTCCTGG: the binding signal (normalized occupancy) was determined as 0.0658.
As to CCTTATAG, the binding signal (normalized occupancy) was determined as 0.0824.
As to GAGGTCGA, the binding signal (normalized occupancy) amounted to 0.0722.
In the case of ATCAGCGA, the binding signal (normalized occupancy) is 0.0728.
The result for ACGTGAAA reads 0.097.
As to CGACCTAG, the binding signal (normalized occupancy) amounted to 0.0686.
Regarding GAACTACC, the binding signal (normalized occupancy) is 0.0767.
The result for GTGAATTA reads 0.0765.
To ACAATAAA belongs 0.0758.
Take ATGACAAC: the binding signal (normalized occupancy) worked out at 0.0781.
As for ATTTCTCC, the binding signal (normalized occupancy) is 0.0731.
To CGGTCCGC belongs 0.0666.
With CAAAGCGA, the binding signal (normalized occupancy) amounted to 0.066.
As to ATGCTTGA, the binding signal (normalized occupancy) came out at 0.0776.
To AACCACAG belongs 0.0711; to ACAAGAAT, 0.0786.
In the case of CCTTCGCG, the binding signal (normalized occupancy) was determined as 0.069.
As for AGCAAGCC, the binding signal (normalized occupancy) was 0.069.
Consider CGAATATC, for which the binding signal (normalized occupancy) amounted to 0.0786.
Turning to ACCCCCAA, the binding signal (normalized occupancy) was found to be 0.0804.
To AAGAGACA belongs 0.0747.
With AGGATATG, the binding signal (normalized occupancy) is 0.0799.
Consider GTGAAGCA, for which the binding signal (normalized occupancy) was 0.0832.
Turning to GTCAACAC, the binding signal (normalized occupancy) stood at 0.0809.
To AGGTACCA belongs 0.0719; to ACTAGTGG, 0.0781; to CCAGATCC, 0.0709.
AACGCAAC: the binding signal (normalized occupancy) came to 0.0782.
Regarding GAGCCTAA, the binding signal (normalized occupancy) came to 0.0763.
For the sequence CGCGGGGA, the binding signal (normalized occupancy) came out at 0.077.
Consider CTAAATTC, for which the binding signal (normalized occupancy) came out at 0.0714.
As for CCCTTTCC, the binding signal (normalized occupancy) was determined as 0.0694.
Consider AGCTGAGG, for which the binding signal (normalized occupancy) is 0.0672.
As to CCTTTGTC, the binding signal (normalized occupancy) worked out at 0.0748.
On to CTGTAAAA, for which the binding signal (normalized occupancy) was determined as 0.0786.
Take ACCGCGGC: the binding signal (normalized occupancy) was 0.0687.
CTACGTGC: the binding signal (normalized occupancy) came out at 0.0865.
As to AGCTACAG, the binding signal (normalized occupancy) stood at 0.0749.
In the case of GCATGTCC, the binding signal (normalized occupancy) was 0.0929.
Turning to ATCTTTCC, the binding signal (normalized occupancy) came to 0.0761.
In the case of AATATCCT, the binding signal (normalized occupancy) was determined as 0.0771.
For ACGAATGA, the binding signal (normalized occupancy) was 0.077.
On to CGCACGTA, for which the binding signal (normalized occupancy) was found to be 0.0881.
With CTACAAAA, the binding signal (normalized occupancy) was 0.0721.
GACCCAGA: the binding signal (normalized occupancy) is 0.0721.
Take CCCGAGGG: the binding signal (normalized occupancy) was 0.0651.
As for AGCTGGAT, the binding signal (normalized occupancy) was 0.0711.
For the sequence AAATCCTA, the binding signal (normalized occupancy) was 0.078.
The result for AATCTTAG reads 0.0698.
As to CGTCCCTA, the binding signal (normalized occupancy) was determined as 0.0733.
In the case of ATCTACCG, the binding signal (normalized occupancy) came to 0.0739.
With CTACATTA, the binding signal (normalized occupancy) was found to be 0.0762.
For the sequence CTGCTCGC, the binding signal (normalized occupancy) is 0.0679.
Consider GCCACTCC, for which the binding signal (normalized occupancy) worked out at 0.0748.
As to AGCGCGAC, the binding signal (normalized occupancy) was determined as 0.0688.
To CTGCAGAC belongs 0.0715; to CAGAAAGG, 0.0726; to CTTGAAGC, 0.0724.
Consider TACCGAGA, for which the binding signal (normalized occupancy) was determined as 0.0775.
Turning to CTCGTAGC, the binding signal (normalized occupancy) was found to be 0.0707.
For the sequence ATCTCAGA, the binding signal (normalized occupancy) came to 0.0758.
Take ACACTTAA: the binding signal (normalized occupancy) worked out at 0.0826.
Regarding ACTACCAC, the binding signal (normalized occupancy) was 0.0826.
As to ATGCACAC, the binding signal (normalized occupancy) was 0.0941.
AACCCAAT: the binding signal (normalized occupancy) worked out at 0.075.
With GACCATTA, the binding signal (normalized occupancy) was determined as 0.0775.
As to ATGCGGAC, the binding signal (normalized occupancy) is 0.087.
As for AGCTAATG, the binding signal (normalized occupancy) is 0.0717.
Consider ATATCGGA, for which the binding signal (normalized occupancy) came out at 0.0799.
